In PubChem BioAssay AID1466 (National Center for Advancing Translational Sciences (NCATS), 2008):
The campaign covered roughly 200,000 compounds. About 10 (0.005%) were called active. The inconclusive results got no clear call from the source; some entries with a clear call stand among them for comparison. Calls come from the whole dose curve; as a rule, active = well fitted inhibition curve with a large enough effect; inconclusive = small, poorly fitted or top-dose-only effect, or effect the other way, or another doubt; inactive = no such curve, though single readings can be large or run the other way. Potencies of inconclusive entries are left out as doubtful fits.

Biological target: Lysosomal alpha-glucosidase (Homo sapiens) (UniProt P10253)
Test: qHTS Assay for Inhibitors of Human alpha-Glucosidase as a Potential Chaperone Treatment of Pompe Disease;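 for activity change, negative = inhibition: plate controls were uninhibited enzyme wells for no effect and no-enzyme background for full effect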
Conditions: purified human GAA, 4-MU-alpha-glucoside fluorescence; activity change, negative = inhibition: at 76.9 µM (top of the series) unless noted
Procedure, shortened: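 AC50 values come from Hill fits of compound titrations (up to 77 uM) against 4 nM human enzyme. Substrate 4-methylumbelliferyl-alpha-D-pyranoside at 400 uM, pH 5.0 citrate buffer, 20 min room temperature; fluorescence Ex 365/Em 440 after alkaline stop.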
Potency is the fitted concentration of half-maximal effect; tags give direction and shape of the fitted curve.

Row | SMILES | Potency | activity change, negative = inhibition
1 | O=C(CCNS(=O)(=O)c1c(Cl)cccc1Cl)OCC(=O)c1ccccc1 | inconclusive [inhibitor, partial curve] | –
2 | C#CC[N+](C)(C)CCCCCCCCCCCC | inconclusive [inhibitor, single point] | –
3 | CCOc1ccccc1-c1cc(C(=O)N/N=C/c2ccc(O)c(OC)c2)c2ccccc2n1 | inconclusive [inhibitor, single point] | –
4 | Cc1cccn2c(CN(C)CCC3CCCCO3)c(C(=O)N3CCCCC3)nc12 (centres undefined) | inconclusive [inhibitor, single point] | –
5 | COc1cc(/C=N/NC(=O)CN(CCc2ccccc2)S(=O)(=O)c2ccc(NC(C)=O)cc2)cc(OC)c1OC | inconclusive [inhibitor, partial curve] | –
6 | CCn1c(SCC(=O)c2ccc(O)c(O)c2)nnc1-c1ccccc1 | inconclusive [inhibitor, partial curve] | –
7 | O=C(NC(=S)Nc1ccccn1)c1ccco1 | – | inconclusive: -15.2% [inhibitor]
8 | Cc1ccccc1-c1cc2c(nn1)-c1ccccc1C2=O | inactive | –
9 | Cc1c(OCc2nn[nH]n2)ccc2c3c(c(=O)oc12)CCCC3 | inconclusive [activator, single point] | –
10 | Cc1c(N=C2NN=C(c3c[nH]c4ccccc34)CS2)c(=O)n(-c2ccccc2)n1C | inconclusive [inhibitor, single point] | –
11 | O=C(NCCc1ccccc1)c1ccc(-n2cnnn2)cc1 | inconclusive [inhibitor, partial curve, poor fit] | –
12 | Cc1ccc(Oc2nc(CN3CCOCC3)nc3sc4c(c23)CCC(C)C4)cc1 (centres undefined) | inconclusive [inhibitor, single point] | –
13 | Cc1ccc(C(=O)OCC(=O)Nc2ccccc2C(F)(F)F)cc1S(=O)(=O)N1CCOCC1 | inconclusive [inhibitor, single point] | –
14 | Cc1ccc(-c2nc(NC(=O)CSc3cc(C)c4ccccc4n3)ns2)cc1 | inconclusive [inhibitor, single point] | –
15 | O=C(Nc1ccc2c(c1)OCO2)c1cccs1 | inactive | –
16 | COc1ccc(/C=C/C(=O)NC(=S)NN2CCCCC2c2cccnc2)cc1 (centres undefined) | inconclusive [inhibitor, single point] | –
17 | CCOc1ccccc1NC(=O)C(OC(=O)c1ccccc1O)c1ccccc1 (centres undefined) | inconclusive [inhibitor, partial curve, poor fit] | –
18 | COC(=O)c1sc2cnccc2c1N | inconclusive [activator, partial curve] | –
19 | CC1=CN2C(=NC(=O)CC2(C)C(=O)N(CC(=O)NC2CCCC2)c2ccccc2C)C=C1 (centres undefined) | inconclusive [activator, partial curve] | –
20 | CCOc1ccc(NC(=O)c2cnc3scc(C)n3c2=O)cc1 | inconclusive [inhibitor, full curve, poor fit] | –
21 | CCCCOC(=O)Nc1nnc(CCc2ccccc2)s1 | inconclusive [activator, single point] | –
22 | OCC1(CCc2ccccc2)CCN(Cc2ccccc2Cl)CC1 | inconclusive [inhibitor, single point] | –

Row | SMILES | Potency | activity change, negative = inhibition
23 | CC(/C=C/c1ccc2c(c1)OCO2)=N\NC(=O)c1cccc([N+](=O)[O-])c1 | inconclusive [inhibitor, partial curve] | –
24 | NC(=O)c1cccc2cc3ccccc3cc12 | inconclusive [activator, full curve, poor fit] | –
25 | Cn1ccnc1SCC(=O)c1c[nH]c2ccccc12 | inconclusive [inhibitor, partial curve] | –
26 | CSCCC(NC(=O)c1ccccc1)C(=O)OCC(=O)c1ccc[nH]1 (centres undefined) | inconclusive [inhibitor, partial curve] | –
27 | COc1ccc(OC(C)C(=O)Nc2ccccc2F)cc1 (centres undefined) | inconclusive [inhibitor, partial curve, poor fit] | –
28 | CCOc1ccc(C2C3=C(CCCC3=O)Nc3nc(C(F)(F)F)nn32)cc1OC (centres undefined) | inconclusive [activator, single point] | –
29 | Cc1ccc(C2CN=NC23CCc2ccccc2C3=O)cc1 (centres undefined) | inconclusive [inhibitor, single point] | –
30 | COC(=O)c1cc(CSc2nc3ccc(C)cc3[nH]2)oc1C | inconclusive [inhibitor, full curve, poor fit] | –
31 | CCOc1cc(NC(=O)c2cccs2)c(OCC)cc1NC(=O)c1cccnc1 | – | inconclusive: 18% [activator]
32 | COC(=O)C(C)Oc1cc(OC(C)C(=O)OC)c2c(C)c(Cl)c(=O)oc2c1 (centres undefined) | inconclusive [activator, single point] | –
33 | Cn1c(SCc2c(F)cccc2Cl)nc2c(c1=O)SCC2 | – | inconclusive: 8.53% [activator]
34 | Cc1ccccc1NC(=S)NC(=O)c1cncc(Br)c1 | inconclusive [inhibitor, single point] | –
35 | COc1cc(/C=C/C(=O)OCC(=O)Nc2sc3c(c2C#N)CCC(C)C3)ccc1OCC#N (centres undefined) | – | inconclusive: 11.5% [activator]
36 | COc1ccccc1-n1c(N)c(C(=O)NCC2CCCO2)c2nc3ccccc3nc21 (centres undefined) | inconclusive [activator, partial curve] | –
37 | O=C(CCC(=O)c1ccc(Oc2ccccc2)cc1)Nc1ccc(Cl)cc1Cl | inconclusive [inhibitor, single point] | –
38 | COc1cc(OC)c(OC)cc1/C=C/C(=O)c1ccc(NS(=O)(=O)c2ccc(C)cc2)cc1 | inconclusive [inhibitor, partial curve, poor fit] | –
39 | COc1ccc2c(c1OC)C(=O)N1N=C(c3ccc(O)cc3)CC21 (centres undefined) | – | inconclusive: -16.3% [inhibitor]
40 | O=C(Cn1cnc2ccccc2c1=O)N1CCN(Cc2ccc3c(c2)OCO3)CC1 | – | inconclusive: -15.1% [inhibitor]
41 | CCN(CC)S(=O)(=O)c1cccc(NC(=O)COc2ccc(Cl)cc2Br)c1 | inconclusive [inhibitor, partial curve] | –
42 | C/C(=N/NC(=O)c1cccs1)c1cccc(N)c1 | – | inconclusive: 15.4% [activator]
43 | Cc1ccc(-c2nnn(CC(=O)N(Cc3cccs3)C(C(=O)NC3CCCC3)c3ccncc3)n2)cc1 (centres undefined) | inconclusive [inhibitor, single point] | –
44 | CC1CCCN(C(=O)CN2C(=O)c3ccccc3C2=O)C1 (centres undefined) | – | inconclusive: -17.4% [inhibitor]

Row | SMILES | Potency | activity change, negative = inhibition
45 | COc1ccc(N(CC(=O)NC2CCCC2)C(=O)CS(=O)CC(=O)Nc2ccc3c(c2)OCO3)cc1 (centres undefined) | – | inconclusive: 10.4% [activator]
46 | CCc1ccc2[nH]c(=O)c(CN(CCN(CC)CC)C(=S)NCc3ccco3)cc2c1 | inconclusive [inhibitor, partial curve] | –
47 | OCCNc1nc(-c2ccccc2)c2ccccc2n1 | inconclusive [activator, partial curve] | –
48 | CCOC(=O)NC(C(F)(F)F)(C(F)(F)F)P(=O)(c1ccccc1)c1ccccc1 | – | inconclusive: -17.1% [inhibitor]
49 | O=C(c1ccc(CS(=O)(=O)c2ccc(Br)cc2)o1)N1CCCC1 | inconclusive [inhibitor, single point] | –
50 | O=S(Cc1ccc(Br)cc1)Cc1nnc(SCc2c(Cl)cccc2Cl)n1-c1ccccc1 (centres undefined) | – | inconclusive: -19.1% [inhibitor]
51 | CCSc1nc2ccccc2n1CCOc1ccccc1 | – | inconclusive: -15% [inhibitor]
52 | Cc1ccc(-c2nc3ccc(C(=O)O)cc3nc2-c2ccc(C)cc2)cc1 | inconclusive [activator, partial curve, poor fit] | –
53 | C/C(O)=C/c1nc2ccccc2[nH]c1=O | – | inconclusive: 16.4% [activator]
54 | CC(C)(C)SCCNS(=O)(=O)c1ccc2ccccc2c1 | inconclusive [inhibitor, single point] | –
55 | CC(=O)c1cc(-c2ccccc2)n(CC(=O)Nc2cccc(C)c2)c1C | inconclusive [inhibitor, single point] | –
56 | COc1ccc(-c2nc3cnccn3c2Nc2ccc(C)cc2)cc1 | inactive | –
57 | CCn1c(=O)c(-c2nc3ccccc3[nH]2)c(O)c2ccccc21 | inconclusive [activator, partial curve, poor fit] | –
58 | Cn1c(-c2ccc3c(c2)OCO3)cnc1NCc1ccccc1 | inactive | –
59 | CCn1nc(NC(=O)c2ccncc2)c2cc3ccc(C)cc3nc21 | inconclusive [inhibitor, single point] | –
60 | Cc1cc(C)n(-c2nc3c(c(=O)[nH]c(=O)n3C)n2Cc2cccc(Br)c2)n1 | – | inconclusive: 19.3% [activator]
61 | Cc1cccc(-n2c(=S)[nH]c3nc4c(cc3c2=O)COC(C)(C)C4)c1 | inconclusive [inhibitor, partial curve] | –
62 | CCCOC(=O)c1c(NC(=O)CCCn2nc([N+](=O)[O-])c(Cl)c2C)sc(C(=O)OC)c1C | inconclusive [inhibitor, full curve, poor fit] | –
63 | O=C(CSc1nc2ccccc2c(=O)n1-c1ccc(Cl)cc1)N/N=C/C=C/c1ccccc1[N+](=O)[O-] | inconclusive [inhibitor, full curve, poor fit] | –
64 | COc1ccc2c(c1OC)C(=O)N(c1ccccc1)C2=O | – | inconclusive: 8.92% [activator]
